{"source": "the supplement of paper PMC8728848", "binders": {"B1": {"name": "TbCVNHOb (Tuber borchii) (protein)", "chain": "GSHIGPYMSFYASSEDVRTIEEGGRTWLVGRARRADGSWQDIKLDLDNIIGNRDGHLTWGEQNFTQSASDIRFNFEGGSNVPVLRAKLRNAAGGEQESDLNLGERLTNNNGDLVFN"}}, "assay_in_all_cases": "glycan array binding signal (z-score within array); higher = stronger binding", "settings_in_all_cases": "glycan notation: IUPAC condensed, linker removed", "key": {"Gal6S(b1-4)Glc": {"target": "Gal6S(b1-4)Glc", "in_short": "(§1)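 Arrays were curated from the Consortium for Functional Glycomics database, 3228 in total, and kept only where the protein sequence was available. Binding is expressed as a within-array Z-score. This score was averaged across arrays of the same protein sequence at different concentrations or buffers and across linkers, and negative values can be read as non-binding.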"}, "Gal6S(b1-4)Glc6S": {"target": "Gal6S(b1-4)Glc6S", "in_short": "as §1"}, "Gal6S(b1-4)GlcNAc": {"target": "Gal6S(b1-4)GlcNAc", "in_short": "as §1"}, "GalNAc(a1-3)Gal": {"target": "GalNAc(a1-3)Gal", "in_short": "as §1"}, "GalNAc(a1-3)GalNAc": {"target": "GalNAc(a1-3)GalNAc", "in_short": "as §1"}, "[1]": {"target": "GalNAc(b1-3)Gal(a1-4)Gal(b1-4)GlcNAc", "in_short": "as §1"}, "GalNAc(b1-4)GlcNAc": {"target": "GalNAc(b1-4)GlcNAc", "in_short": "as §1"}, "Glc(a1-4)Glc": {"target": "Glc(a1-4)Glc", "in_short": "as §1"}, "Glc(a1-6)Glc(a1-6)Glc": {"target": "Glc(a1-6)Glc(a1-6)Glc", "in_short": "as §1"}, "Glc(b1-4)Glc": {"target": "Glc(b1-4)Glc", "in_short": "as §1"}, "Glc(b1-6)Glc": {"target": "Glc(b1-6)Glc", "in_short": "as §1"}, "GlcA(b1-3)Gal": {"target": "GlcA(b1-3)Gal", "in_short": "as §1"}, "GlcA(b1-6)Gal": {"target": "GlcA(b1-6)Gal", "in_short": "as §1"}, "[2]": {"target": "GlcNAc(a1-3)Gal(b1-4)GlcNAc", "in_short": "as §1"}, "[3]": {"target": "GlcNAc(a1-6)Gal(b1-4)GlcNAc", "in_short": "as §1"}, "[4]": {"target": "GlcNAc(b1-2)Gal(b1-3)GlcNAc", "in_short": "as §1"}, "[5]": {"target": "GlcNAc(b1-2)Man(a1-3)[GlcNAc(b1-2)Man(a1-6)]Man(b1-4)GlcNAc(b1-4)GlcNAc", "in_short": "as §1"}, "GlcNAc(b1-3)Gal": {"target": "GlcNAc(b1-3)Gal", "in_short": "as §1"}, "[6]": {"target": "GlcNAc(b1-3)Gal(b1-3)GalNAc", "in_short": "as §1"}, "GlcNAc(b1-3)Gal(b1-4)Glc": {"target": "GlcNAc(b1-3)Gal(b1-4)Glc", "in_short": "as §1"}, "[7]": {"target": "GlcNAc(b1-3)Gal(b1-4)GlcNAc", "in_short": "as §1"}, "[8]": {"target": "GlcNAc(b1-3)Gal(b1-4)GlcNAc(b1-3)Gal(b1-4)GlcNAc", "in_short": "as §1"}, "GlcNAc(b1-3)GalNAc": {"target": "GlcNAc(b1-3)GalNAc", "in_short": "as §1"}, "[9]": {"target": "GlcNAc(b1-3)[GlcNAc(b1-4)][GlcNAc(b1-6)]GlcNAc", "in_short": "as §1"}, "[10]": {"target": "GlcNAc(b1-3)[GlcNAc(b1-6)]Gal(b1-4)GlcNAc", "in_short": "as §1"}, "[11]": {"target": "GlcNAc(b1-3)[GlcNAc(b1-6)]GlcNAc", "in_short": "as §1"}, "[12]": {"target": "GlcNAc(b1-4)Gal(b1-4)GlcNAc", "in_short": "as §1"}, "[13]": {"target": "GlcNAc(b1-4)GlcNAc(b1-4)GlcNAc", "in_short": "as §1"}, "[14]": {"target": "GlcNAc(b1-4)GlcNAc(b1-4)GlcNAc(b1-4)GlcNAc(b1-4)GlcNAc", "in_short": "as §1"}, "[15]": {"target": "GlcNAc(b1-4)GlcNAc(b1-4)GlcNAc(b1-4)GlcNAc(b1-4)GlcNAc(b1-4)GlcNAc", "in_short": "as §1"}, "[16]": {"target": "GlcNAc(b1-4)[GlcNAc(b1-6)]GalNAc", "in_short": "as §1"}, "[17]": {"target": "GlcNAc(b1-6)Gal(b1-4)GlcNAc", "in_short": "as §1"}, "GlcNAc(b1-6)GalNAc": {"target": "GlcNAc(b1-6)GalNAc", "in_short": "as §1"}, "Kdn(a2-3)Gal(b1-3)GlcNAc": {"target": "Kdn(a2-3)Gal(b1-3)GlcNAc", "in_short": "as §1"}, "Kdn(a2-3)Gal(b1-4)GlcNAc": {"target": "Kdn(a2-3)Gal(b1-4)GlcNAc", "in_short": "as §1"}, "[18]": {"target": "Man(a1-2)Man(a1-2)Man(a1-3)Man", "in_short": "as §1"}, "[19]": {"target": "Man(a1-2)Man(a1-2)Man(a1-3)[Man(a1-2)Man(a1-3)[Man(a1-2)Man(a1-6)]Man(a1-6)]Man(b1-4)GlcNAc(b1-4)GlcNAc", "in_short": "as §1"}, "[20]": {"target": "Man(a1-2)Man(a1-2)Man(a1-3)[Man(a1-2)Man(a1-6)[Man(a1-3)]Man(a1-6)]Man(b1-4)GlcNAc(b1-4)GlcNAc", "in_short": "as §1"}, "[21]": {"target": "Man(a1-2)Man(a1-2)Man(a1-6)[Man(a1-3)]Man", "in_short": "as §1"}, "Man(a1-2)Man(a1-3)Man": {"target": "Man(a1-2)Man(a1-3)Man", "in_short": "as §1"}, "[22]": {"target": "Man(a1-2)Man(a1-3)[Man(a1-2)Man(a1-6)]Man", "in_short": "as §1"}, "[23]": {"target": "Man(a1-2)Man(a1-3)[Man(a1-3)[Man(a1-6)]Man(a1-6)]Man(b1-4)GlcNAc(b1-4)GlcNAc", "in_short": "as §1"}, "[24]": {"target": "Man(a1-2)Man(a1-3)[Man(a1-6)]Man(a1-6)[Man(a1-2)Man(a1-3)]Man(b1-4)GlcNAc(b1-4)GlcNAc", "in_short": "as §1"}, "Man(a1-3)[Man(a1-6)]Man": {"target": "Man(a1-3)[Man(a1-6)]Man", "in_short": "as §1"}, "[25]": {"target": "Man(a1-3)[Man(a1-6)]Man(a1-6)[Man(a1-3)]Man(b1-4)GlcNAc(b1-4)GlcNAc", "in_short": "as §1"}, "[26]": {"target": "Man(a1-3)[Man(a1-6)]Man(b1-4)GlcNAc(b1-4)GlcNAc", "in_short": "as §1"}, "Man(b1-4)GlcNAc": {"target": "Man(b1-4)GlcNAc", "in_short": "as §1"}, "Neu5Ac(a2-3)Gal": {"target": "Neu5Ac(a2-3)Gal", "in_short": "as §1"}, "[27]": {"target": "Neu5Ac(a2-3)Gal(b1-3)GalNAc", "in_short": "as §1"}}, "note": "This is one part of the list.", "data": [{"binder": "B1", "values": [{"measurement": "glycan array binding signal (z-score)", "setting": "Gal6S(b1-4)Glc", "value": 0.32}, {"measurement": "glycan array binding signal (z-score)", "setting": "Gal6S(b1-4)Glc6S", "value": -0.291}, {"measurement": "glycan array binding signal (z-score)", "setting": "Gal6S(b1-4)GlcNAc", "value": -0.436}, {"measurement": "glycan array binding signal (z-score)", "setting": "GalNAc(a1-3)Gal", "value": -0.318}, {"measurement": "glycan array binding signal (z-score)", "setting": "GalNAc(a1-3)GalNAc", "value": -0.388}, {"measurement": "glycan array binding signal (z-score)", "setting": "[1]", "value": 1.86}, {"measurement": "glycan array binding signal (z-score)", "setting": "GalNAc(b1-4)GlcNAc", "value": -0.366}, {"measurement": "glycan array binding signal (z-score)", "setting": "Glc(a1-4)Glc", "value": -0.337}, {"measurement": "glycan array binding signal (z-score)", "setting": "Glc(a1-6)Glc(a1-6)Glc", "value": 0.422}, {"measurement": "glycan array binding signal (z-score)", "setting": "Glc(b1-4)Glc", "value": 0.042}, {"measurement": "glycan array binding signal (z-score)", "setting": "Glc(b1-6)Glc", "value": 0.333}, {"measurement": "glycan array binding signal (z-score)", "setting": "GlcA(b1-3)Gal", "value": 1.11}, {"measurement": "glycan array binding signal (z-score)", "setting": "GlcA(b1-6)Gal", "value": -0.483}, {"measurement": "glycan array binding signal (z-score)", "setting": "[2]", "value": -0.185}, {"measurement": "glycan array binding signal (z-score)", "setting": "[3]", "value": -0.201}, {"measurement": "glycan array binding signal (z-score)", "setting": "[4]", "value": -0.402}, {"measurement": "glycan array binding signal (z-score)", "setting": "[5]", "value": -0.286}, {"measurement": "glycan array binding signal (z-score)", "setting": "GlcNAc(b1-3)Gal", "value": -0.16}, {"measurement": "glycan array binding signal (z-score)", "setting": "[6]", "value": -0.412}, {"measurement": "glycan array binding signal (z-score)", "setting": "GlcNAc(b1-3)Gal(b1-4)Glc", "value": 0.325}, {"measurement": "glycan array binding signal (z-score)", "setting": "[7]", "value": -0.066}, {"measurement": "glycan array binding signal (z-score)", "setting": "[8]", "value": -0.388}, {"measurement": "glycan array binding signal (z-score)", "setting": "GlcNAc(b1-3)GalNAc", "value": -0.177}, {"measurement": "glycan array binding signal (z-score)", "setting": "[9]", "value": -0.077}, {"measurement": "glycan array binding signal (z-score)", "setting": "[10]", "value": -0.551}, {"measurement": "glycan array binding signal (z-score)", "setting": "[11]", "value": -0.365}, {"measurement": "glycan array binding signal (z-score)", "setting": "[12]", "value": 0.438}, {"measurement": "glycan array binding signal (z-score)", "setting": "[13]", "value": -0.364}, {"measurement": "glycan array binding signal (z-score)", "setting": "[14]", "value": -0.165}, {"measurement": "glycan array binding signal (z-score)", "setting": "[15]", "value": -0.463}, {"measurement": "glycan array binding signal (z-score)", "setting": "[16]", "value": 0.22}, {"measurement": "glycan array binding signal (z-score)", "setting": "[17]", "value": 0.14}, {"measurement": "glycan array binding signal (z-score)", "setting": "GlcNAc(b1-6)GalNAc", "value": -0.337}, {"measurement": "glycan array binding signal (z-score)", "setting": "Kdn(a2-3)Gal(b1-3)GlcNAc", "value": -0.56}, {"measurement": "glycan array binding signal (z-score)", "setting": "Kdn(a2-3)Gal(b1-4)GlcNAc", "value": 0.108}, {"measurement": "glycan array binding signal (z-score)", "setting": "[18]", "value": 5.4}, {"measurement": "glycan array binding signal (z-score)", "setting": "[19]", "value": 0.34}, {"measurement": "glycan array binding signal (z-score)", "setting": "[20]", "value": -0.449}, {"measurement": "glycan array binding signal (z-score)", "setting": "[21]", "value": 2.41}, {"measurement": "glycan array binding signal (z-score)", "setting": "Man(a1-2)Man(a1-3)Man", "value": -0.427}, {"measurement": "glycan array binding signal (z-score)", "setting": "[22]", "value": -0.572}, {"measurement": "glycan array binding signal (z-score)", "setting": "[23]", "value": -0.019}, {"measurement": "glycan array binding signal (z-score)", "setting": "[24]", "value": -0.281}, {"measurement": "glycan array binding signal (z-score)", "setting": "Man(a1-3)[Man(a1-6)]Man", "value": -0.322}, {"measurement": "glycan array binding signal (z-score)", "setting": "[25]", "value": -0.383}, {"measurement": "glycan array binding signal (z-score)", "setting": "[26]", "value": -0.197}, {"measurement": "glycan array binding signal (z-score)", "setting": "Man(b1-4)GlcNAc", "value": 0.106}, {"measurement": "glycan array binding signal (z-score)", "setting": "Neu5Ac(a2-3)Gal", "value": -0.478}, {"measurement": "glycan array binding signal (z-score)", "setting": "[27]", "value": 0.202}]}]}
